Some of the results follow.
Each sequence was assayed against T1, OsWOX13 (Oryza sativa, UniProt Q5QMM3 1-267) (assay: protein-binding microarray (RPBM); PBS, 2% BSA, 51.3 ng/ul salmon testes DNA, 50 uM zinc acetate, 200 nM TF, 25 C, 1 h; high values mean tight binding). Details: protein: recombinant; tags: N-terminal polyhistidine and DsRed monomer fusion (pET32a); label: CyDye5-dUTP incorporated in the synthesized complementary strand; 3' TTTTT single-stranded linker to array surface; dsDNA, one strand shown.
T1 sequence: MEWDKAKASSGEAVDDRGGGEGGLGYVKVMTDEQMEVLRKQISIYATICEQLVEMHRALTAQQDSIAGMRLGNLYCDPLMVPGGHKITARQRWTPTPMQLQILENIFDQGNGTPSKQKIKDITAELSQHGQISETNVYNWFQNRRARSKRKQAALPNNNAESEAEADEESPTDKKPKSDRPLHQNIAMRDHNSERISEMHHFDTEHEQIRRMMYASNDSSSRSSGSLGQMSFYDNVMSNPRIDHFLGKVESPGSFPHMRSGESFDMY
In short: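 The binding signal is fluorescence intensity per array feature (arbitrary units). Readings came from an Axon 4000B scanner after a washed, 2% BSA-blocked, double-stranded custom Agilent array had been incubated for 1 h at 25 °C with 200 nM protein and 50 µM zinc acetate. The protein was a Ni–NTA-purified transcription factor fused N-terminally to polyhistidine and DsRed, expressed in E. coli BL21-CodonPlus.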

Sequence	binding signal
TTTAATCTTTAATATTGATTTTGCCACCAACTAAAACGGCCGGAGTCACCTAGTGCAG	4660 fluorescence intensity (a.u.)
ACTCTAATTTCCTAACGTTTCTTGACGTAGCCATAAGGTTCGGAGTCACCTAGTGCAG	10300 fluorescence intensity (a.u.)
GGCGGGTGGTGATGGCGGGGAGGCAGGCCAACGAGCGCGACGGAGTCACCTAGTGCAG	3200 fluorescence intensity (a.u.)
TAAAATTAGCAAACATGAGAGCAAGGGTCTCTGTCCCCGGCGGAGTCACCTAGTGCAG	6600 fluorescence intensity (a.u.)
ACCAATTTCCAGTTAACCGCCGTCTGAATTCATTTATCCACGGAGTCACCTAGTGCAG	9690 fluorescence intensity (a.u.)
ATCCTTATTAATTTAATTTAACAAAGTCAACTTGATTTCCCGGAGTCACCTAGTGCAG	23100 fluorescence intensity (a.u.)
TGCTGCATTGATAGATACAAATAAATATATATACAGACAACGGAGTCACCTAGTGCAG	7440 fluorescence intensity (a.u.)
GGAGATATGCTTTTCTGATTGTCTTAATAAAATCGTAGTGCGGAGTCACCTAGTGCAG	3830 fluorescence intensity (a.u.)
GGTCGATCCATCGATTGATGGATCAATAATGCAAGCAAGCCGGAGTCACCTAGTGCAG	5030 fluorescence intensity (a.u.)
GAAGACAAATTTTATATCAAACTTGTAGCTCTCGACGCGACGGAGTCACCTAGTGCAG	5880 fluorescence intensity (a.u.)
ACAAACAAATTAACATGATACTTGGGAACTCTATATAAACCGGAGTCACCTAGTGCAG	7650 fluorescence intensity (a.u.)
AATTATAATATAATTGATCGATAACTAAATTCGAAAAGTCCGGAGTCACCTAGTGCAG	21400 fluorescence intensity (a.u.)
ACAGGTGCATGATTAATATTTGCATCATATTTCTGCGGGACGGAGTCACCTAGTGCAG	4640 fluorescence intensity (a.u.)
TCTATAAATTGGCCTAGTACCTGGAAAGTGAAATCTGCCACGGAGTCACCTAGTGCAG	7920 fluorescence intensity (a.u.)
CGTGCTTCATTGATTTCTGCCATCAGGAGATTATGTTTCCCGGAGTCACCTAGTGCAG	5230 fluorescence intensity (a.u.)
TCGTCGTACACACTTGATTAATTAATGGCGTGGAGGAACACGGAGTCACCTAGTGCAG	11600 fluorescence intensity (a.u.)
ATAAACTAAATTCTATTATCTAATAACCGTTTTGATCTAACGGAGTCACCTAGTGCAG	5300 fluorescence intensity (a.u.)
CTAAAGGGTTAATTTATTAACACTATTAACACTTTACTTACGGAGTCACCTAGTGCAG	4840 fluorescence intensity (a.u.)
TTTCTGTTTCTCAATAATTGAAGCGAATCTGCAAAATTGGCGGAGTCACCTAGTGCAG	10400 fluorescence intensity (a.u.)
TTAAAATTGATTTCTCTATCCATTCATTCCCATATCCGATCGGAGTCACCTAGTGCAG	38300 fluorescence intensity (a.u.)
CAGCAATTTAGATTTATCAATCTACGTACGTACAATTTTACGGAGTCACCTAGTGCAG	13500 fluorescence intensity (a.u.)

Sequence	binding signal
CGGGAGGGGAGGGGAATGGATGTGGGGAGGAGAGAGACTGCGGAGTCACCTAGTGCAG	3440 fluorescence intensity (a.u.)
ATGGACTAATTATGCTCAAAAGATTCGTCTCACGATTTACCGGAGTCACCTAGTGCAG	16800 fluorescence intensity (a.u.)
GGTAATTTGTCCGGTATTGAAAGTTTAGGGTGAGCAATGTCGGAGTCACCTAGTGCAG	22900 fluorescence intensity (a.u.)
GTTTAAATTAGTGAAAGATGGAAGCGATGAGAGTTGTTAGCGGAGTCACCTAGTGCAG	11900 fluorescence intensity (a.u.)
GTATAATCTAGCCATTAATTACACCATTAGTTACGGATAACGGAGTCACCTAGTGCAG	9490 fluorescence intensity (a.u.)
ATATAACAATAATAAAATTAAAATAAACTTCACCCGTTGTCGGAGTCACCTAGTGCAG	3430 fluorescence intensity (a.u.)
GAGGATTAATTCCTTGGTCTTGATGTCATTTGCTTAGAGGCGGAGTCACCTAGTGCAG	5620 fluorescence intensity (a.u.)
TAAATCAACAAGGCATAATTTGAATATTTAATCCTTGTGCCGGAGTCACCTAGTGCAG	4620 fluorescence intensity (a.u.)
TGAATTTGATTTCTCTATAATGACTGGCTCTGATACCACACGGAGTCACCTAGTGCAG	10500 fluorescence intensity (a.u.)
GCTACGTGATTATCTAAGAACTATCGGTTGATCTAATCATCGGAGTCACCTAGTGCAG	10300 fluorescence intensity (a.u.)
CTTAACGACACCTGATTAGCAGCTCCAGTACACTAATTAACGGAGTCACCTAGTGCAG	20300 fluorescence intensity (a.u.)
TATATATATATATATATATATATATATATATATTAATGGTCGGAGTCACCTAGTGCAG	10600 fluorescence intensity (a.u.)
TTGAGTGTAACTTTGTAATAAATTGGAAAGGCTGGGATATCGGAGTCACCTAGTGCAG	4090 fluorescence intensity (a.u.)
ATTGACCATTTGACAGAAATCAGCCGTACTTTCGGATTCTCGGAGTCACCTAGTGCAG	5100 fluorescence intensity (a.u.)
TGCTAATTAGATGAGGGTGAGCAAAGACATGCTATAAGTGCGGAGTCACCTAGTGCAG	52000 fluorescence intensity (a.u.)
TAATTGAGGGTAATTAATATAATCGTCCGGACATCGTGCGCGGAGTCACCTAGTGCAG	10500 fluorescence intensity (a.u.)
ATGTGATTTGGGAAACAAAGTGAACAACCTAACCTAAACCCGGAGTCACCTAGTGCAG	17600 fluorescence intensity (a.u.)
AGTAATTTTGTTCTGATTGCATGTCTCAACAGGATGTAGACGGAGTCACCTAGTGCAG	41300 fluorescence intensity (a.u.)
TTGTGATGAACTTTTGACAAGGTTTGTACCTGCAGCAGGACGGAGTCACCTAGTGCAG	6570 fluorescence intensity (a.u.)
CAACTAAACTTTTAATTTTAGCATAAACTAAACAGACCCACGGAGTCACCTAGTGCAG	5430 fluorescence intensity (a.u.)
TTTGATGTGATGGAAAAGTTGGAAGTTTGAAGAAAAGGTTCGGAGTCACCTAGTGCAG	12300 fluorescence intensity (a.u.)

From article PMC7819943, “Rice protein-binding microarrays: a tool to detect cis-acting elements near promoter regions in rice”
